Assay results as given in the RNAGym collection of RNA variant scans (doi:10.1093/nar/gkz1192).
The source gives no read counts; variants with many changes may rest on few reads.

B1: CPEB3 Ribozyme (parent)
chain: UAACAGGGGGCCACAGCAGAAGCGUUCACGUCGCAGCCCCUGUCAGAUUCUGGUGAAUCUGCGAAUUCUGCUGUAUAUCUC

Variants of: B1
Test: self-cleavage, relative activity (ratio to wild type); higher = more cleavage; in vitro, sequencing
Outline: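 Relative activity was defined as the cleaved/total read fraction for a variant divided by the same fraction for the unmutated ribozyme. CPEB3 self-cleaving ribozyme libraries were made by rounds of error-prone PCR, barcoded, and transcribed in vitro with T7 RNA polymerase for 5 hours at 37°C, and cleavage ran through transcription plus a 15 min DNase I step before EDTA. Illumina sequencing of template-switched reverse transcripts gave the reads, and DNA sequencing mapped the barcodes. Averages come from three batches, using variants with at least 5 reads.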
With U25C U31A U78G the self-cleavage was 0.13.
With U25C U41C U51A C62U the self-cleavage was 0.1.
Work on U25C C40A C79G yielded a self-cleavage of 0.24.
U25C U26C U41C U60A gave a self-cleavage of 0.09.
U25C C59A A75U U76G showed a self-cleavage of 0.15.
U25C U26C C37A U41C showed a self-cleavage of 0.24.
Work on U25C U48C U69C U72C U78C yielded a self-cleavage of 0.08.
Variant U25C U48C A56U has a self-cleavage of 0.07.
U25C U31A A35U U60C gave a self-cleavage of 0.07.
Work on U25C G36A A47G A56U A57G yielded a self-cleavage of 0.1.
With U25C U31C U74C U76G the self-cleavage was 0.07.
Variant U25C U48C U72G has a self-cleavage of 0.1.
U25C U48C U72A gave a self-cleavage of 0.28.
In the case of U25C G52C U54C A56U, the self-cleavage is reported as 0.16.
With U25C C38A U54A U69C U78C the self-cleavage was 0.17.
Variant U25C U31A A35C U43G A65G U72C has a self-cleavage of 0.06.
U25C U26C U49C G55A showed a self-cleavage of 0.22.
In the case of U25C U41C A47G U54A A56U A77C, the self-cleavage is reported as 0.12.
In the case of U25C U43C U72A, the self-cleavage is reported as 0.19.
Variant U25C G36C C39U A45G U58C has a self-cleavage of 0.14.
In the case of U25C U43A C50U G61A A65G U66C, the self-cleavage is reported as 0.11.
U25C G30C A56G U60C A64U U74C U80C showed a self-cleavage of 0.05.
Work on U25C U41C U58A U80C yielded a self-cleavage of 0.26.
U25C U43A G52U showed a self-cleavage of 0.35.
Work on U25C U43A A56U A77G yielded a self-cleavage of 0.2.
U25C U26C C40U U49C gave a self-cleavage of 0.12.
U25C G30A U58A showed a self-cleavage of 0.21.
Work on U25C U26C U51C yielded a self-cleavage of 0.26.
U25C U41C U51C U78C gave a self-cleavage of 0.12.
U25C G52C A57G U67A U78C showed a self-cleavage of 0.08.
For U25C U31C U49A U58C U67C, the self-cleavage was 0.07.
For U25C U41A A47G A75U, the self-cleavage was 0.08.
U25C G33A A35G U49A U51A showed a self-cleavage of 0.15.
With U25C U48A U49C A64U the self-cleavage was 0.12.
Variant U25C G30A U41C U54C U78C has a self-cleavage of 0.22.
With U25C U26C A56G A57G the self-cleavage was 0.22.
In the case of U25C U43C A45G U66C U72A, the self-cleavage is reported as 0.25.
U25C G33A C34A U41A U54A G70A U76C showed a self-cleavage of 0.16.
Work on U25C U41C U60C U67G U69C U72C yielded a self-cleavage of 0.39.
Variant U25C U48C U51C A65U U74A has a self-cleavage of 0.15.
U25C U43C U60C U72A showed a self-cleavage of 0.19.
For U25C G33C C79U, the self-cleavage was 0.19.
Variant U25C U48C U51C U80C C81U has a self-cleavage of 0.3.
U25C U43C A56U showed a self-cleavage of 0.15.
U25C U26A U78G gave a self-cleavage of 0.19.
U25C U31G A56G A65U A75G gave a self-cleavage of 0.09.
Work on U25C U31C U80C yielded a self-cleavage of 0.3.
U25C U31A U43A A47U showed a self-cleavage of 0.15.
With U25C U41C U51A the self-cleavage was 0.19.
U25C U43C A64G gave a self-cleavage of 0.29.
Work on U25C U31A U41C G63A U74G yielded a self-cleavage of 0.08.
Work on U25C U41G C62A A65U U78G yielded a self-cleavage of 0.12.
For U25C C39U A47G U49A U72G A75G, the self-cleavage was 0.02.
U25C G30A A47G showed a self-cleavage of 0.13.
U25C U41G U72C U80A gave a self-cleavage of 0.16.
U25C U31G U54C U60A showed a self-cleavage of 0.38.
U25C U26A A45U U48C G73U showed a self-cleavage of 0.05.
Variant U25C U31C C39U U78C has a self-cleavage of 0.13.
U25C G46U U54C U74A showed a self-cleavage of 0.1.
In the case of U25C U31A U74A, the self-cleavage is reported as 0.09.
U25C U41A U43C U74A gave a self-cleavage of 0.06.
In the case of U25C C39A U80C, the self-cleavage is reported as 0.14.
Work on U25C G30C U54C U67A yielded a self-cleavage of 0.17.
With U25C G53A A65G U74C U78C U80C the self-cleavage was 0.53.
U25C C40A U49C U54A showed a self-cleavage of 0.11.
U25C U26C U67C gave a self-cleavage of 0.1.
U25C U26A U41C showed a self-cleavage of 0.19.
Work on U25C C38U U80C yielded a self-cleavage of 0.34.
Variant U25C C38G A47U U48C U51C U54C U58A has a self-cleavage of 0.03.
For U25C U26C U58C A64U U69C U78C, the self-cleavage was 0.32.
Work on U25C U26C C29U A45G yielded a self-cleavage of 0.26.
In the case of U25C G30U A57G, the self-cleavage is reported as 0.13.
U25C G30U A57U gave a self-cleavage of 0.06.
With U25C U48A U51A the self-cleavage was 0.39.
U25C U26C A45G U48A U69C U76A showed a self-cleavage of 0.03.
For U25C U26C C37U A45G U54C, the self-cleavage was 0.15.
Variant U25C U43G U60A U72G U78C has a self-cleavage of 0.07.
Variant U25C U43C U48C U80C has a self-cleavage of 0.18.
U25C G30A U69C showed a self-cleavage of 0.11.
Variant U25C U26C A75G has a self-cleavage of 0.19.
In the case of U25C U26C A47G U54A, the self-cleavage is reported as 0.3.
U25C U26A U41A G52A U66C U76C U78C gave a self-cleavage of 0.06.
In the case of U25C G42U U67C, the self-cleavage is reported as 0.09.
U25C U26A U43C U69C U72A showed a self-cleavage of 0.15.
With U25C U26A U31C C40U the self-cleavage was 0.19.
Work on U25C U26A G33A C34A A47G U54A C62U yielded a self-cleavage of 0.26.
Work on U25C C40A U67A U69A yielded a self-cleavage of 0.05.
U25C G52U U74C U80C showed a self-cleavage of 0.13.
With U25C U41C A56G A57G U66C the self-cleavage was 0.1.
With U25C C44U A56G the self-cleavage was 0.42.
For U25C U41C U43C U58C C62U G73A, the self-cleavage was 0.02.
Work on U25C U31C G46U U66C yielded a self-cleavage of 0.13.
With U25C G46A U48C A64G U69C the self-cleavage was 0.13.
For U25C C40G C59A U66C, the self-cleavage was 0.07.
For U25C U41C U66C, the self-cleavage was 0.18.
In the case of U25C U26C A35G G52A A65G U78C, the self-cleavage is reported as 0.07.
U25C U43A U67C U72C gave a self-cleavage of 0.36.
In the case of U25C U31C U41A U43C, the self-cleavage is reported as 0.15.
For U25C U31A U54C A64U, the self-cleavage was 0.
U25C G33A U49C U67C U76A A77G gave a self-cleavage of 0.08.
Variant U25C G30U U43A A56G U72A has a self-cleavage of 0.05.
For U25C G36A U49C, the self-cleavage was 0.06.
In the case of U25C U41G U54A, the self-cleavage is reported as 0.21.
With U25C U26C A45U U49C the self-cleavage was 0.18.
U25C U26C C40G showed a self-cleavage of 0.29.
Work on U25C C40U A47G yielded a self-cleavage of 0.21.
Work on U25C U43C U67A A75G yielded a self-cleavage of 0.05.
U25C U31A U58A U60A U78C gave a self-cleavage of 0.1.
With U25C C71A U76C the self-cleavage was 0.07.
Work on U25C C40U U80C yielded a self-cleavage of 0.21.
U25C U48C U51A showed a self-cleavage of 0.34.
Work on U25C U31C A47G yielded a self-cleavage of 0.26.
U25C C59U U60A G73A showed a self-cleavage of 0.22.
For U25C C62G U67C, the self-cleavage was 0.15.
Work on U25C U31A U48C U72C yielded a self-cleavage of 0.27.
With U25C U43C U49C U74A the self-cleavage was 0.23.
U25C U31G C50U G52A U76C C79G gave a self-cleavage of 0.1.
U25C C50U U60C U80C showed a self-cleavage of 0.2.
With U25C U41A U43C the self-cleavage was 0.23.
With U25C U26C C44A A64G the self-cleavage was 0.24.
With U25C U41A U72C the self-cleavage was 0.36.
Variant U25C C50U U58G C62U has a self-cleavage of 0.07.
For U25C U48C U51C A64C U80A, the self-cleavage was 0.15.
Variant U25C U43C U49C U69C has a self-cleavage of 0.21.
For U25C C39U U74C U78C, the self-cleavage was 0.19.
U25C U26C A56G A57G U80C gave a self-cleavage of 0.09.
U25C U26C A47G A75U gave a self-cleavage of 0.12.
With U25C C62G U72C the self-cleavage was 0.14.
Variant U25C U41C U58A has a self-cleavage of 0.1.
In the case of U25C U31C A45G U54C, the self-cleavage is reported as 0.12.
Work on U25C U43C U51C U66C U80C yielded a self-cleavage of 0.32.
For U25C U31A G46A U69A U72A, the self-cleavage was 0.1.
Variant U25C U48C U54C A57G has a self-cleavage of 0.43.
In the case of U25C G30A G42A U51G, the self-cleavage is reported as 0.14.
Variant U25C U41C A56U has a self-cleavage of 0.32.
Work on U25C U43A A57U A65G yielded a self-cleavage of 0.09.
U25C U31A U60A A77U showed a self-cleavage of 0.16.
U25C U26G G73A showed a self-cleavage of 0.35.
Variant U25C U48C U66C has a self-cleavage of 0.37.
With U25C U49A A56G A57G the self-cleavage was 0.13.
U25C G36A U54C C62U showed a self-cleavage of 0.13.
Work on U25C U26A C37A yielded a self-cleavage of 0.21.
With U25C U41A A57G U76A the self-cleavage was 0.14.
For U25C U31A C38U U48C U58A, the self-cleavage was 0.17.
Variant U25C G36U A75U U80C has a self-cleavage of 0.13.
Work on U25C U31C A47G U51G A75U yielded a self-cleavage of 0.27.
U25C U43C U54A U69C showed a self-cleavage of 0.2.
In the case of U25C C59U A64C U72C, the self-cleavage is reported as 0.1.
U25C U41C A64G showed a self-cleavage of 0.1.
U25C U26C U51C U54C A57U gave a self-cleavage of 0.17.
With U25C U31C U51C the self-cleavage was 0.27.
With U25C G36A U49C U69A the self-cleavage was 0.07.
In the case of U25C U43G U80A, the self-cleavage is reported as 0.15.
In the case of U25C G36C A45G U51C U58C U60C, the self-cleavage is reported as 0.08.
With U25C U26C C40U U72C the self-cleavage was 0.16.
U25C G30C A47G gave a self-cleavage of 0.14.
Variant U25C U31A A35G A47G A75G U76C has a self-cleavage of 0.07.
Variant U25C U31C G53C U66A has a self-cleavage of 0.22.
With U25C U41C A56G A64G A77U the self-cleavage was 0.44.
With U25C G70C U78C the self-cleavage was 0.06.
With U25C C39A U72A U74C the self-cleavage was 0.15.
With U25C C39U U41A A57G the self-cleavage was 0.07.
Work on U25C G61U A64U yielded a self-cleavage of 0.14.
U25C G42A U54C U60C U72C U74C gave a self-cleavage of 0.04.
For U25C U31A A57G U72C, the self-cleavage was 0.17.
Work on U25C U48C U69C yielded a self-cleavage of 0.1.
Variant U25C U31C U48C A57G has a self-cleavage of 0.12.
